T1: UNK ZnF1-6 (called full-length) (human, UniProt Q9C0B0 30-357)
T1 sequence: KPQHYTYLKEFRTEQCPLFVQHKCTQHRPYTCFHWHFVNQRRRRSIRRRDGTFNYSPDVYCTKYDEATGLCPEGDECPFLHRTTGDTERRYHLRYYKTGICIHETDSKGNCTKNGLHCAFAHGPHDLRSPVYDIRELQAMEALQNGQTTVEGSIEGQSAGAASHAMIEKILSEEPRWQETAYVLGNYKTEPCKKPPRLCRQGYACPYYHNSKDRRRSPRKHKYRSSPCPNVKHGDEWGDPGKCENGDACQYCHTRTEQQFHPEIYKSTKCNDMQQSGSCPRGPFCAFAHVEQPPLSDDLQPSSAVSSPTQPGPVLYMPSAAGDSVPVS

B1: chr8:42175261:42175472:-|3pUTR|ENSG00000104368|msi1|total|mutant (ssRNA)
RNA: GGGAGUUCUACAGUCCGACGAUCGUAUUCCUUUUGUGUACAGUGUGUAAAGUGUAAAUCCUUUUUCUUUAUAAACUUCCGAGCCGCAUGAGAGAAUUGUAUCAUUUGAACAACCCGGCUUCAGCAUAUUUACCGCAAUCCAUGCAACAGAGGAUUGAGCAUCA
B2: ENSG00000114062:stop:overlap|stop_codon|ENSG00000114062|stop_codon|NA|stop_codon (ssRNA)
RNA: GGGAGUUCUACAGUCCGACGAUCUGGGAGGACUAGGAAAAUUAAAGAUGAUUAUAGCCAAAAAUGGCCCAGACACAGAAAGGUAGGUAAUUAUUAACUUGUGACUGUAUACCUACCGAAAACCUUGCAUUCCUCGUCACAUACCAACAGAGGAUUGAGCAUCA
B3: chr1:9729132:9729211:-|3pUTR|ENSG00000171603|msi1_unk|FALSE|overlapping (ssRNA)
RNA: GGGAGUUCUACAGUCCGACGAUCUAGUUCUGAGGACACUGGUGGCUGUGCUAUGUGUGGCCAUCCUCCAUGUCCCGUCCCUGUAGCUGCUCUGUUUAGACAGCGGACAGACGCUCACGCCCAGGGGAUGUCCUCACGCUGUCGCAACAGAGGAUUGAGCAUCA
B4: ENSG00000100034:stop:overlap|stop_codon|ENSG00000100034|stop_codon|NA|stop_codon (ssRNA)
RNA: GGGAGUUCUACAGUCCGACGAUCGGAGGCAGGACUUGCCCUCCAGCCUUCCAGAACCUGAGACCCAGGCUCCACCAAGAAGCUAGGUGGUUUCCAGGCCCCUGCCCUCCCCUUCCUCCCAUCCUUGUCCUUCUCUCCCUCAGACAACAGAGGAUUGAGCAUCA
B5: chr11:111494814:111495134:-|three_prime_utr|ENSG00000137707|control|control|control (ssRNA)
RNA: GGGAGUUCUACAGUCCGACGAUCUCUCUAAAAUAAAAAUGAAUUUAAGGUUGAGAGGCCCAUGAAACAAAAAAUGACCAUAUUAGGGACUAGGGUACACAAUGGUAAAUCCUCUCAUACAGAUCAUCACUGUUCUUAGCUGUACAACAGAGGAUUGAGCAUCA
B6: chr3:194587672:194588620:-|three_prime_utr|ENSG00000145014|control|control|control (ssRNA)
RNA: GGGAGUUCUACAGUCCGACGAUCAAGCUGCCCUGGCAAGUGAGGAACCAGGAGCCGUCACUGAGUGUGGCUGGGCUACAUCAUAGCUCAUCACGGAGCUACGACUUUGGGUACUGCGGACAGACCUGGAUAGGCCCAGCAUUCCAACAGAGGAUUGAGCAUCA
B7: chr1:225419324:225419425:-|CDS|ENSG00000143815|msi1|FALSE|unique (ssRNA)
RNA: GGGAGUUCUACAGUCCGACGAUCUUACAUAGCAACACAGUAUAGCCUUCGUCCAAGAAGAGAAGAAGUCAAAUUAAAAGAAAUAGAUUCUAAGGAAGAAAAAUACGUUGCAAAAGAACUGGCAGUGAGAACCUUUGAAGUGACCAACAGAGGAUUGAGCAUCA
B8: chr10:99876058:99876159:-|3pUTR|ENSG00000107554|msi1|FALSE|bound_elsewhere (ssRNA)
RNA: GGGAGUUCUACAGUCCGACGAUCUUGAGCCUAAUGGAAGACUGGAUGUCUUUCUUCUUCAUCCAAGCACCCUAAUGACUGUUUAGUUACAUCCAUAGAUGCAGACAACAUAACACCUGUGACUUACUUGAAUUGGGAUAAGCCCAACAGAGGAUUGAGCAUCA
B9: chr12:51809400:51809501:+|3pUTR|ENSG00000196876|unk|total|mutant (ssRNA)
RNA: GGGAGUUCUACAGUCCGACGAUCCUGCCUUGCAGCCGAAGCACUUUGAAGGUAAUUUCACAGUCCACCAGACCCGUUUUGCACCGAACAAACCACAGUAAGUCGGCAAGCAGAGCUUUCUAUCUUGUUGGACCACCCGAAACUCAACAGAGGAUUGAGCAUCA
B10: chrX:27979534:27981334:-|CDS|ENSG00000226372|control|control|control (ssRNA)
RNA: GGGAGUUCUACAGUCCGACGAUCAGAUAUAGUAAACUGUCUUGAACCCCACCCUUACCUACCUGUGUUGGCGACCAGUGGCCUAGAUCAGCAUGUCAGGAUCUGGACACCCACAGCUAAAACUGCCACUGAGCUUACUGGGUUCAACAGAGGAUUGAGCAUCA
B11: chrX:155122998:155123099:+|3pUTR|ENSG00000185515|unk|FALSE|unique (ssRNA)
RNA: GGGAGUUCUACAGUCCGACGAUCCUACAUACACACAAAUGAAUGCAUGUAAAAUCUGGUGAUACUGAAUAAAGUCUGUGGUCUAGAUAGCAGUAUAAUAUUAUUGUCAAUGUCUUGGAUGUGAAGUUGUGCUAUAGUUACAAACAACAGAGGAUUGAGCAUCA
B12: chr22:46255662:46256560:-|three_prime_utr|ENSG00000130943|control|control|control (ssRNA)
RNA: GGGAGUUCUACAGUCCGACGAUCGUUUCAUGAGUCACAAGCAAGCGUUCCCCCAACUGCUGAGUCUGUGGGAUUAAGGGGAUUAGGGAGUGUCAGUGGCCUAGUCAUGCUUUCUACUCAUGUCCUUCACAAGGCACAUCCCCUCAACAGAGGAUUGAGCAUCA
B13: chr17:35854954:35855410:-|three_prime_utr|ENSG00000270379|control|control|control (ssRNA)
RNA: GGGAGUUCUACAGUCCGACGAUCUCAAGACUUUCGACUUGCAAAGCUGAACCCCUUGUUUAUUGCAAAGUCCAUCACCAAAGUAGGCCAAAAGAAAACGCCUGCUUUCCCACCGUGCUGCUCGAAACCACGAAAACAUAGGCCCAACAGAGGAUUGAGCAUCA
B14: chr4:159352722:159352837:+|CDS|ENSG00000109756|unk|FALSE|unique (ssRNA)
RNA: GGGAGUUCUACAGUCCGACGAUCACUGUGGAUAAUUUUUCAGAUUCUGGUCACAGUGAAAUUUCUUCACGAUCCAGUAUUGUUAGCAAUUCGUCUUUUGACUCAGUGCCAGUCUCACUGCACGAUGAGAGGCGCCAGAGGCAUCAACAGAGGAUUGAGCAUCA
B15: chr1:24840999:24841100:+|3pUTR|ENSG00000169504|msi1|FALSE|bound_elsewhere (ssRNA)
RNA: GGGAGUUCUACAGUCCGACGAUCGCUACUCCUUCCUGUAGAGCAGAAAUUGUAUUUUGCACGAACAUGCAGUUAUUGAAGAUUAGGAUCAAGGAUAGACAAGGUAUAGUAGUUAUCUUAAAAUAUACACUCCUAAGCAGUAUUCAACAGAGGAUUGAGCAUCA
B16: chr4:57031156:57031257:-|3pUTR|ENSG00000163453|msi1|FALSE|unique (ssRNA)
RNA: GGGAGUUCUACAGUCCGACGAUCAUAACUACAUUACCUGUUCUUGCCUAAUAAGUUUCUUUUAAUCCAAUCCACUAACACUUUAGUUAUAUUCACUGGUUUUACACAGAGAAAUACAAAAUAAAGAUCACACAUCAAGACUAUCAACAGAGGAUUGAGCAUCA
B17: chr14:106373662:106373964:-|CDS|ENSG00000211956|control|control|control (ssRNA)
RNA: GGGAGUUCUACAGUCCGACGAUCCAAUCAUAGUGGAAGCACCAACUACAACCCGUCCCUCAAGAGUCGAGUCACCAUAUCAGUAGACACGUCCAAGAACCAGUUCUCCCUGAAGCUGAGCUCUGUGACCGCCGCGGACACGGCCAACAGAGGAUUGAGCAUCA
B18: chr11:35230299:35231094:+|3pUTR|ENSG00000026508|msi1|FALSE|unique (ssRNA)
RNA: GGGAGUUCUACAGUCCGACGAUCGCCUGGGGAGUCCCUCAAAAGGUUAAAGGGAUUCCCAUCAUUGGAAUCUUAUCACCAGAUAGGCAAGUUUAUGACCAAACAAGAGAGUACUGGCUUUAUCCUCUAACCUCAUAUUUUCUCCAACAGAGGAUUGAGCAUCA
B19: ENSG00000170471:stop:overlap|stop_codon|ENSG00000170471|stop_codon|NA|stop_codon (ssRNA)
RNA: GGGAGUUCUACAGUCCGACGAUCUGGAGCCAGAGUUUUAUACUUCACUUUUCCAGGAGGUUGGACUCAAGAACUGCAGUUCUUAGACCACUGAAUUUCUAAGACUGUUGAACUCCAGUUUGGGAACUAUAACACAGCAGAACACAACAGAGGAUUGAGCAUCA
B20: chr5:72208839:72208948:+|3pUTR|ENSG00000131711|msi1_unk|total|mutant (ssRNA)
RNA: GGGAGUUCUACAGUCCGACGAUCCUUGCCUCUCUUCCGUCACCUGUCACAGGAGGUUCCUGCUCAGUAAUGAUAUUGUGAGUCCGGAUAAUAACUUUUUUUUUUUGUGCUUCAGAUUCCGAAGAAAAGAUCCUGUUUCCAUUUCAACAGAGGAUUGAGCAUCA
B21: chr16:70572763:70572864:+|3pUTR|ENSG00000189091|msi1|total|mutant (ssRNA)
RNA: GGGAGUUCUACAGUCCGACGAUCUCUGCAGCACCCAUCUCAGGUGGGUUCCAGAGGGCCUUCCGGGUAUAAUGAGAGCCUGUCCGGUGGAAGAGGCCCAGUUCCAGAAAUGUUCCAGCCCACCCCUGAGAAUUCCUCCUGUUUCAACAGAGGAUUGAGCAUCA
B22: ENSG00000138759:stop:overlap|stop_codon|ENSG00000138759|stop_codon|NA|stop_codon (ssRNA)
RNA: GGGAGUUCUACAGUCCGACGAUCAAGUUGGAAAGGUUGAGCCCUUGACCACAAUAUUUCACACCAUUAGAGAGCUUUCUUUAUAGGGACUCAAAAGCAAAGAAGAUUGGAUUUGACCUUCAAAAUUGAAGGUCGUUCUUAAAACAACAGAGGAUUGAGCAUCA

The other results are listed elsewhere or left out.

The target in the test is T1, UNK ZnF1-6 (called full-length). The test is described as follows: nsRBNS (natural sequence RNA bind-n-seq); RBNS binding buffer (assumed for nsRBNS): 25 mM Tris pH 7.5, 150 mM KCl, 3 mM MgCl2, 0.01% Triton X-100, 500 ug/ml BSA, 20 U/ml SUPERase-In, 4 C; UNK is unkempt and MSI1 is Musashi-1; names of the RNAs are library labels; protein concentration not given here; high values mean tight binding.
The molecule B1 had a binding signal of 0.316 enrichment R.

B2 returned a binding signal of 0.642 enrichment R.

B3 gave a binding signal of 0.611 enrichment R.

The molecule B4 had a binding signal of 1.37 enrichment R.

B5 returned a binding signal of 0.545 enrichment R.

Take B6: the binding signal was found to be 0.841 enrichment R.

On to B7, for which the binding signal came to 0.538 enrichment R.

Consider B8, for which the binding signal worked out at 0.493 enrichment R.

The molecule B9 registered a binding signal of 0.77 enrichment R.

B10 yielded a binding signal of 0.883 enrichment R.

B11 came in with a binding signal of 0.959 enrichment R.

For the molecule B12, the binding signal is 0.66 enrichment R.

Consider B13, for which the binding signal is 0.554 enrichment R.

With B14, the binding signal was 0.47 enrichment R.

Molecule B15 returned a binding signal of 0.841 enrichment R.

B16 displayed a binding signal of 1.55 enrichment R.

The molecule B17 displayed a binding signal of 0.824 enrichment R.

On to B18, for which the binding signal worked out at 0.54 enrichment R.

With B19, the binding signal is 0.513 enrichment R.

Regarding B20, the binding signal amounted to 0.52 enrichment R.

The molecule B21 registered a binding signal of 0.526 enrichment R.

Consider B22, for which the binding signal amounted to 0.281 enrichment R.

The values are drawn from paper PMC12136788.
